Reference: PubChem BioAssay AID686978 (National Center for Advancing Translational Sciences (NCATS), 2013)
Values joined by “and” are separate entries in the source; they are usually repeats but may differ in a detail not shown here. Identical values can stand only once. The whole screen tested about 420,000 compounds, of which about 64,000 (15%) were called active. The shares of active, inactive and inconclusive entries below differ from those in the screen. Calls follow the shape of the dose curve; as a rule, active = well fitted inhibition curve with a large enough effect; inconclusive = small, poorly fitted or top-dose-only effect; inactive = flat fitted curve, though single readings scatter. Potencies beside an inconclusive call are fits to weak or partial responses and may not hold up.

Experiment: qHTS for Inhibitors of human tyrosyl-DNA phosphodiesterase 1 (TDP1): qHTS in cells in absence of CPT; also: nearly all actives have a fitted effect of over 55% in size
Settings: DT40 Tdp1-/- hTDP1 cells, no CPT, ATP luminescence, 48 h; activity change, negative = growth inhibition: at 46.2 µM (top of the series) unless noted
How it was run: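 Readout: luminescence from CellTiter-Glo after 30 min in the dark at RT. Cells: DT40 Tdp1-/- with stable hTDP1, 400/well. Exposure: compounds alone, ≥48 hr, 37 °C.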
% is scaled to controls: 0 for no effect and ±100 for the full control effect; potency is read from the fitted curve at half-maximal effect; tags tell the direction and shape of the fitted curve.

Question: Which Potency does the source give for `CC1CCCC(C)N1C(=O)CSc1ncccn1` (stereo unspecified) here?
Answer: inactive

Question: With `O=C(NCCCO)C(=O)Nc1cc2c3c(c1)CCC(=O)N3CCC2` as the compound, how does the Potency read?
Answer: inactive

Question: Which activity change, negative = growth inhibition does the source give for `CCc1nnc(NC(=O)c2sc3nc4c(cc3c2N)CCCCC4)s1` here?
Answer: inconclusive: -35.3% [inhibitor]

Question: With `O=C(CN1c2ccccc2S(=O)(=O)c2ccccc21)Nc1cccc(C(F)(F)F)c1` as the compound, how does the Potency read?
Answer: inconclusive: 29.1 µM [inhibitor, single point]

Question: For `Cc1cccc(Cn2c(Cc3ccccc3)nc3ccccc32)c1`, which Potency is on record?
Answer: inconclusive: 29.1 µM [inhibitor, single point] and inconclusive: 13 µM [inhibitor, single point]

Question: With `COc1ccc(Br)cc1CN1CCN(Cc2c[nH]c3ccccc23)CC1` as the compound, how does the Potency read?
Answer: active: 7.31 µM

Question: For `COc1ccc(CCN2CCC(CNC(=O)c3cnn(-c4cccc(Cl)c4)c3C3CCN(C(=O)OC(C)(C)C)CC3)CC2)cc1`, which Potency is on record?
Answer: active: 8.2 µM

Question: For `CC(=O)Nc1ccc(OS(=O)(=O)c2ccc(C)cc2C)cc1`, which Potency is on record?
Answer: inconclusive: 16.4 µM [inhibitor, single point]

Question: For `O=C(c1ccc2c(c1)OCO2)C1CCCN(Cc2ccccc2OC(F)F)C1` (stereo unspecified), which Potency is on record?
Answer: inconclusive: 18.4 µM [inhibitor, single point]

Question: Which Potency does the source give for `COc1ccc(N2CCN(C(=O)C3CCN(c4nc5ccc(C)cc5[nH]4)CC3)CC2)cc1` here?
Answer: active: 8.2 µM

Question: For `COC(=O)c1ccccc1NC(=O)c1cc2ccccc2o1`, which Potency is on record?
Answer: inconclusive: 25.9 µM [inhibitor, single point]

Question: Which Potency does the source give for `O=C(Nc1ccccc1)c1ccc(CN2CCc3ccccc3C2)cc1` here?
Answer: inactive

Question: For `N#CC1=C(N)C(C#N)(C#N)[C@H](c2ccncc2)[C@H]2CC3(CC=C12)OCCO3`, which Potency is on record?
Answer: inactive

Question: For `O=C(NCCCN1CCN(c2ccccc2F)CC1)c1ccc2nc(N3CCCCC3)sc2c1`, which Potency is on record?
Answer: inconclusive: 29.1 µM [inhibitor, single point]

Question: For `CSc1ccc(CN2CCC(C)(Oc3ccc4ccccc4c3)C2)cc1` (stereo unspecified), which Potency is on record?
Answer: inconclusive: 11.6 µM [inhibitor, partial curve]

Question: For `OCCNc1c2ccccc2nc2c(F)c(F)c(F)c(F)c12`, which Potency is on record?
Answer: active: 2.31 µM

Question: With `CCSc1nc2c([nH]1)c(=O)n(C)c(=S)n2C` as the compound, how does the Potency read?
Answer: inactive

Question: Which Potency does the source give for `CCSc1ccc([C@@H]2[C@H]3C(=O)N(CC)C(=O)[C@H]3[C@]3(C(=O)OC)CCCCN23)cc1OC` here?
Answer: active: 16.4 µM

Question: With `COc1ccc(C2=NS(=O)(=O)N(C)C(C(=O)Nc3ccc4c(c3)OCO4)=C2)cc1` as the compound, how does the Potency read?
Answer: active: 8.2 µM

Question: For `Cn1c(SCCOc2cccc(Cl)c2)nnc1-c1ccncc1`, which Potency is on record?
Answer: inconclusive: 16.4 µM [inhibitor, partial curve]

Question: With `COc1cc(OC)c(C(=O)NCC2CCCO2)cc1OC` (stereo unspecified) as the compound, how does the Potency read?
Answer: inactive

Question: Which Potency does the source give for `CC(C)C[C@H](NC(=O)c1nc[nH]c1C(=O)NC1CCN(C(=O)OC(C)(C)C)CC1)C(=O)OC(C)(C)C` here?
Answer: active: 18.4 µM

Question: Which Potency does the source give for `CC(C)CC(=O)N1C/C=C\C[C@@H](c2ccc(Cl)cc2)N(Cc2ccc(Cl)cc2)C(=O)[C@@H]1Cc1ccccc1` here?
Answer: active: 12.6 µM

Question: With `CC(C)CNC(=S)NC(=O)c1ccc(F)cc1` as the compound, how does the Potency read?
Answer: inconclusive: 29.1 µM [inhibitor, single point]

Question: Which Potency does the source give for `CCCCCCCCn1c(=O)c(C(=O)OCC)c(O)c2ccccc21` here?
Answer: inconclusive: 29.1 µM [inhibitor, single point]

Question: For `CSc1ccc(/C=C/C(=O)OCC(=O)N2CCN(c3ccccc3)CC2)cc1`, which Potency is on record?
Answer: inactive

Question: With `CC(C)CC(N)c1csc(Nc2cnccn2)n1` (stereo unspecified) as the compound, how does the Potency read?
Answer: active: 9.2 µM

Question: Which Potency does the source give for `CC(=O)Nc1ccc(C(=O)Nc2cccc(S(=O)(=O)N(C)c3ccccc3)c2)cc1` here?
Answer: inconclusive: 20.6 µM [inhibitor, partial curve]

Question: With `CC1(C)CC(=O)C=C(c2ccc(-c3cnn(Cc4ccccc4)c3)cc2)C1=O` as the compound, how does the Potency read?
Answer: inconclusive: 29.1 µM [inhibitor, single point]

Question: Which Potency does the source give for `COC(=O)c1c(NC(=O)COC(=O)c2ccc(O)cc2)sc2c1CCCCC2` here?
Answer: active: 29.1 µM

Question: Which Potency does the source give for `CCN(C(=O)COC(=O)c1ccc(SC)cc1OC)C1CCS(=O)(=O)C1` (stereo unspecified) here?
Answer: inactive

Question: With `O=C(c1ccc2nc3ccc(Cl)cc3c(=O)n2c1)N1CCOCC1` as the compound, how does the Potency read?
Answer: inconclusive: 18.4 µM [inhibitor, single point]

Question: Which Potency does the source give for `COc1cccc(Cn2c(=O)c(C)nc3cnc(Nc4ccccc4)nc32)c1` here?
Answer: inconclusive: 29.1 µM [inhibitor, single point]

Question: With `CCOC(=O)c1c(C)n(C)c2c1cc(OC(C)=O)c1ccccc12` as the compound, how does the Potency read?
Answer: inconclusive: 20.6 µM [inhibitor, single point]

Question: Which Potency does the source give for `Cc1onc(-c2c(F)cccc2Cl)c1C(=O)Nc1nnc(C(F)(F)F)s1` here?
Answer: active: 14.6 µM

Question: For `CCN1C(=O)/C(=c2\sc3nc(=O)c(Cc4ccccc4)nn3c2=O)c2ccccc21`, which Potency is on record?
Answer: inactive

Question: With `O=C(NCc1ccco1)C1CCN(C(=O)c2cc3sccc3n2Cc2ccc(F)cc2)CC1` as the compound, how does the Potency read?
Answer: inconclusive: 23.1 µM [inhibitor, single point]

Question: Which Potency does the source give for `COc1cc2ccccc2cc1C(=O)N(CCN(C)C)c1nc2c(F)cc(F)cc2s1` here?
Answer: inconclusive: 23.1 µM [inhibitor, single point]

Question: For `CC(=O)Nc1cccc(C(=O)NCc2ccc3c(c2)CCN3C(=O)c2ccc(F)cc2)c1`, which Potency is on record?
Answer: active: 16.4 µM

Question: For `Cc1c(CCNC(=O)C(C)(C)C)sc2nc(-c3ccc(F)cc3)nn12`, which Potency is on record?
Answer: active: 25.9 µM

Question: Which Potency does the source give for `Cc1ccccc1-c1nc(CN2CCC(C(=O)N3CCC(C(N)=O)CC3)CC2)c(C)o1` here?
Answer: inactive

Question: Which Potency does the source give for `CCCCCC(=O)N1C[C@H](n2cc(COC(=O)c3ccccc3)nn2)[C@@H](O)C[C@@H]1c1ccc(C)cc1` here?
Answer: inconclusive: 29.1 µM [inhibitor, single point]

Question: Which Potency does the source give for `CC(=O)C1=C(C)NC(SCC(=O)c2ccc(F)cc2)=C(C#N)C1CC(C)C` (stereo unspecified) here?
Answer: inconclusive: 29.1 µM [inhibitor, single point]

Question: Which Potency does the source give for `CCN(CC)CCN1C(=O)C(=O)/C(=C(/O)c2ccc(S(=O)(=O)N3CCOCC3)cc2)C1c1ccc(C(C)C)cc1` (stereo unspecified) here?
Answer: inactive

Question: For `Cc1cc2c(cc3c(SCc4ccccc4Cl)nnc(C)n32)o1`, which Potency is on record?
Answer: inconclusive: 29.1 µM [inhibitor, single point]

Question: With `CC1(c2nnc(-c3cccc(Cl)c3)o2)CC(c2cccc(Cl)c2)=NO1` (stereo unspecified) as the compound, how does the Potency read?
Answer: inconclusive: 29.1 µM [inhibitor, single point]
